This is an account of results in article PMC4336329 (PLoS ONE, 2015).

Out of some 310,000 compounds screened, about 14,000 (4.5%) showed an effect of 50% or more. The effect is printed as a negative number. Some of the results follow.
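Note: peak tail current of the secondary pulse compared with the same well before compound.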

The test deals with human ether-à-go-go-related gene (hERG) potassium channel (human, UniProt Q12809). As to the kind of experiment: primary screen, population patch clamp on CHO cells stably expressing hERG.
Sequence of human ether-à-go-go-related gene (hERG) potassium channel (Q12809 whole entry, looked up): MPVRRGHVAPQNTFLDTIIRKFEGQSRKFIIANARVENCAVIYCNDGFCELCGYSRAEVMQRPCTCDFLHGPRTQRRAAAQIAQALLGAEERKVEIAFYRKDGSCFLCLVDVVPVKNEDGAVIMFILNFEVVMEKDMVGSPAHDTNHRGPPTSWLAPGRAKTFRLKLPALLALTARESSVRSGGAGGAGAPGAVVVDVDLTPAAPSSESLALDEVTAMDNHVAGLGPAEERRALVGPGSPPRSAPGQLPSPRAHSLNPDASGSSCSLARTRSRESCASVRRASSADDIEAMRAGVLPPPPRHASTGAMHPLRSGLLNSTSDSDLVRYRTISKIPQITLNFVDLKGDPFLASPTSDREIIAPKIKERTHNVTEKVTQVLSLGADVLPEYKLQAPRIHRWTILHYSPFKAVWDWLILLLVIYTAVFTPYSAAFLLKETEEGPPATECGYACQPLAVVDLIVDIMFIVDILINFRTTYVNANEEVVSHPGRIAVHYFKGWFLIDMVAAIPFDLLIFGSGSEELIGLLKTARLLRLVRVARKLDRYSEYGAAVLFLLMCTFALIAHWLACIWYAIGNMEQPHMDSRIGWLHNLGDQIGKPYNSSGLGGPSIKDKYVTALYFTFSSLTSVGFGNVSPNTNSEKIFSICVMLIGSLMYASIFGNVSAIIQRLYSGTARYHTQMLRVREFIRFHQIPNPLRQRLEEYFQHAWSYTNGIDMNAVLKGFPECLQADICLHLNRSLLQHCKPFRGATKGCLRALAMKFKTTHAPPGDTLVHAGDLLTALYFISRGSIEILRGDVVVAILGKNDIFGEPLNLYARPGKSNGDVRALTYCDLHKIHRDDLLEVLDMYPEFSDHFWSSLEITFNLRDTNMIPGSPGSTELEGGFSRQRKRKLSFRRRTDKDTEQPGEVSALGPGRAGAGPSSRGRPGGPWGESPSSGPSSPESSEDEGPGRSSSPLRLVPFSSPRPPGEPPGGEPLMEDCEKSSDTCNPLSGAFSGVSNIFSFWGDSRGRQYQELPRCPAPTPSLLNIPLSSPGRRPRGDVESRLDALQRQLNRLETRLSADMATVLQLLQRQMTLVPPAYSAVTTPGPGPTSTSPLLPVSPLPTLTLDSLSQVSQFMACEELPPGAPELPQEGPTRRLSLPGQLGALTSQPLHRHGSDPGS
For `Cc1ccc2oc(-c3cccc(N)c3)nc2c1`, the “hERG current change (%, negative = inhibition) at 10uM” value is listed as 18.6%. Regarding `Cc1ccc(C(=O)NCc2ccc3c(c2)OCO3)cc1C`, the “hERG current change (%, negative = inhibition) at 10uM” value was 7.22%. As for `COC(=O)CN1C(=O)N/C(=C/c2cc(OC)c(OC)cc2C)C1=O`, the “hERG current change (%, negative = inhibition) at 10uM” value came to 3.41%. Consider `Cc1ccc(C(=O)Nc2sc3c(c2C#N)CCCCC3)cc1C`, for which the “hERG current change (%, negative = inhibition) at 10uM” value came out at 1.01%.

As for `Cc1nonc1NC(=O)CSc1nc2ccc(Cl)cc2[nH]1`, the “hERG current change (%, negative = inhibition) at 10uM” value was determined as 3.09%.

Turning to `COc1cccc(NC(=O)C(OC(=O)c2cnc(C)cn2)c2ccccc2)c1` (centres unmarked), the “hERG current change (%, negative = inhibition) at 10uM” value turned out to be 5.89%. With `CC(=O)[C@@H]1[C@@H](C(=O)c2ccc(C)cc2)[C@]2(C(=O)Nc3ccccc32)[C@H]2C=Cc3cc(F)ccc3N12` the figure was 2.02%; with `Cc1cc(O)c2c(c1)C(=O)c1cc(O)cc(O)c1C2=O`, 8.63%. On to `COc1ccc(NS(=O)(=O)c2cccc(C(=O)N/N=C/c3cccs3)c2)cc1`, for which the “hERG current change (%, negative = inhibition) at 10uM” value was -7.85%. As to `O=[N+]([O-])c1cccc(C(=S)N2CCN(c3ccccc3F)CC2)c1`, the “hERG current change (%, negative = inhibition) at 10uM” value is on record as -15%. For the compound `CCNC(=O)C(=O)NCCc1ccc(Cl)cc1`, the “hERG current change (%, negative = inhibition) at 10uM” value was determined as 10.7%. As for `CCOc1ccc(N(C)S(=O)(=O)c2ccc(-c3cc(C)no3)s2)cc1`, the “hERG current change (%, negative = inhibition) at 10uM” value is given as 13.9%. Turning to `COc1ccc(C(=O)Nc2cc(C)nn2-c2ccc(C)cc2)cc1`, the “hERG current change (%, negative = inhibition) at 10uM” value is 20.5%.

For `Cc1ccc(/C=C2\C(=O)NC(=S)N(c3ccc(F)cc3)C2=O)s1`, the “hERG current change (%, negative = inhibition) at 10uM” value is given as 14.5%. As to `COc1ccccc1C(=O)Nc1c(-c2ccccc2)nc2ccccn12`, the “hERG current change (%, negative = inhibition) at 10uM” value was -13.3%. For the compound `CCOC(=O)Cc1nnc(NC(=O)c2ncn[nH]2)s1`, the “hERG current change (%, negative = inhibition) at 10uM” value is -9.4%. The figure for `Nc1ccc(CCN2CCN(c3cccc(C(F)(F)F)c3)CC2)cc1` is -67.2%; for `CCN(CC)S(=O)(=O)c1ccc(N2CCOCC2)c(NC(=O)c2ccc3c(c2)OCCO3)c1` it is -29.4%. As to `COc1ccc(CN(C(=S)Nc2ccccc2)C2CC(=O)N(c3ccccc3)C2=O)cc1` (centres unmarked), the “hERG current change (%, negative = inhibition) at 10uM” value amounted to 4.07%. As to `COC(=O)C1=C(c2ccc(OC)c(OC)c2)C[C@@H]2CC[C@H]1N2C(=O)NCc1ccco1`, the “hERG current change (%, negative = inhibition) at 10uM” value was determined as 9.89%. On to `Cc1ccccc1NC(=O)CC1SC(=Nc2ccc(O)cc2)NC1=O` (centres unmarked), for which the “hERG current change (%, negative = inhibition) at 10uM” value was determined as 10.8%. For `O=C(O)CC/C(=C\c1ccc(Cl)c([N+](=O)[O-])c1)c1nc2ccccc2s1`, the “hERG current change (%, negative = inhibition) at 10uM” value was determined as 5.17%. For the compound `COC(=O)C1=C(c2c(C)noc2C)C[C@@H]2CC[C@H]1N2C(=O)N1CCCC1`, the “hERG current change (%, negative = inhibition) at 10uM” value turned out to be 13.5%. The figure for `CC(C)CCN(CC(=O)NC1CCCC1)C(=O)C(=O)Nc1ccc2c(c1)OCCO2` is 11%. With `COc1ccccc1C1C2=C(N=C3SCC(=O)N31)c1ccccc1CC2` (centres unmarked) the figure was 9.78%; with `CCS(=O)(=O)N1CCN(c2ccnc3cc(Cl)ccc23)CC1`, -73.2%; with `O=C(CNS(=O)(=O)c1ccccc1)NCC(=O)OCc1ccc(Br)cc1`, -6.92%. Take `Cc1nn(CC#N)c(=O)n1-c1ccc(Cl)cc1`: the “hERG current change (%, negative = inhibition) at 10uM” value worked out at 9.4%.

Consider `CC(C)CCNC(=O)C1CCN(c2nc3ccccc3o2)CC1`, for which the “hERG current change (%, negative = inhibition) at 10uM” value is listed as -7.06%. For the compound `COc1ccc(N(Cc2cc3ccc(C)cc3[nH]c2=O)S(=O)(=O)c2ccccc2)cc1`, the “hERG current change (%, negative = inhibition) at 10uM” value is 12%.

Take `C#CCNC(=O)C1=C[C@@H](c2ccccc2)C[C@@H](OCCCCO)O1`: the “hERG current change (%, negative = inhibition) at 10uM” value is on record as -13.4%. For the compound `Cc1ccc(CN2CCN(Cc3ccc4cccc(F)c4n3)CC2CCO)cc1` (centres unmarked), the “hERG current change (%, negative = inhibition) at 10uM” value is listed as -68.6%. For the compound `CC(=O)Nc1cccc(Nc2nc(-c3ccccc3F)nc3ccccc23)c1`, the “hERG current change (%, negative = inhibition) at 10uM” value stood at 11.5%.

For the compound `CCCCOc1cccc(C(=O)Nc2ccc(S(=O)(=O)Nc3nnc(CC)s3)cc2)c1`, the “hERG current change (%, negative = inhibition) at 10uM” value was -7.54%. With `CN(C)c1ccc(/C=N/NC(=O)c2ccc3c(c2)OCO3)cc1` the figure was 6.07%; with `O=C(Nc1ccc(-c2nc3cccnc3s2)cc1)c1ccco1`, 13.1%. The figure for `O=C(CC1Sc2ccccc2NC1=O)Nc1ccccc1[N+](=O)[O-]` (centres unmarked) is -4.23%.

Take `COc1ccc(OC)c(Nc2cc(C)nc3nc(C)nn23)c1`: the “hERG current change (%, negative = inhibition) at 10uM” value is on record as 0.139%. Take `O=C(CCC(=O)N(CC(=O)NC1CCCCC1)c1ccc2c(c1)OCCO2)Nc1ccccn1`: the “hERG current change (%, negative = inhibition) at 10uM” value was found to be 9.02%. Consider `CCCN(CCC)C(=O)CC(c1ccccc1)c1cc(C)ccc1O` (centres unmarked), for which the “hERG current change (%, negative = inhibition) at 10uM” value is given as -20.3%. With `CC(C)c1ccc(NC(=O)CSc2nc(=O)n(CCCN3CCOCC3)c3c2CCC3)cc1` the figure was -51.3%; with `O=C(NNC(=S)NCc1ccc(Cl)cc1)c1ccc2c(c1)OCO2`, 6.73%; with `CCOC(=O)CSc1ccc2nnc(-c3ccncc3)n2n1`, -31.4%. With `CCCS(=O)(=O)c1c(S(=O)(=O)CCC)c2cnccn2c1C(=O)c1ccc(Cl)cc1` the figure was -31.7%.
